# Hit rate of the full screen: of about 45,000 compounds, about 200 (0.44%) were called active. Another 7% or so got no clear call; they are omitted. Calls follow the shape of the dose curve; as a rule, active = well fitted activation curve with a large enough effect; inconclusive = small, poorly fitted or top-dose-only effect; inactive = no such curve, though single readings can be large or run the other way. The list shows a part of the results.
# Assay: qHTS of TDP-43 Inhibitors: NCGC Sytravon Library Screen; also: nearly all actives have a fitted effect of over 55% in size; as to growth rescue (activation): 0% is about no effect
# Details: yeast TDP-43 toxicity rescue, BacTiter-Glo growth, 24 h; series mostly up to 46.1 µM; growth rescue (activation): at the top concentration
# Method in brief: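 TDP-43-expressing yeast, pregrown in raffinose, seeded at OD600 0.02 in galactose medium with compound for 24 hr at 30 deg C. Growth read by BacTiter-Glo luminescence, so rescue of toxicity appears as activation.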
# Potency is read from the fitted curve at half-maximal effect.
SMILES,growth rescue (activation),Potency
Cc1ccccc1NS(=O)(=O)c1ccc(NS(=O)(=O)c2cccs2)cc1,inactive: 9.2%,–
COCCn1c(=O)[nH]c2cc(C(=O)N3CCN(c4cccc(Cl)c4)CC3)ccc2c1=O,inactive: 15.6%,–
N#Cc1ccc(C(=O)OCC(=O)Nc2ccc(S(N)(=O)=O)cc2)cc1,inactive: -4.92%,–
N=C1S/C(=C\c2ccc(O)cc2)C(=O)N1c1ccc(F)cc1,inactive: 3.97%,–
Cc1cc(C)c(S(=O)(=O)N2CCN(C(=O)N(C)C)CC2)c(C)c1,inactive: -13.8%,–
CCC(=O)Nc1ccc(NC(=O)c2cc3ccccc3o2)c(OC)c1,inactive: -9.81%,–
Cc1cc(C)cc(NC(=O)CN2CCN(C(=O)c3cccs3)CC2)c1,inactive: -8.7%,–
Cc1ccc(NCC(=O)N=Nc2c(O)n(C)c3ccccc23)cc1,inactive: 9.97%,–
Cc1ccc(C)c(C(O)c2ncc(-c3ccc(Cl)cc3)[nH]2)c1 (stereo not given),inactive: 10%,–
O=C(CSc1nc(-c2ccco2)cc(C(F)(F)F)n1)NCCN1CCOCC1,inactive: -3.44%,–
Cc1cc(=O)[nH]c(SCC(=O)NC2CCCCC2)n1,inactive: -1.44%,–
CN1C(=O)/C(=C\c2ccc(-c3ccccc3)o2)SC1=S,inactive: 11.7%,–
COc1ccc(NC(=O)N2CCCC2C(=O)NC2CCCC2)cc1 (stereo not given),inactive: 17.2%,–
COc1c(C)cc(C(O)c2ncc(-c3cccc(C(F)(F)F)c3)[nH]2)cc1C (stereo not given),inactive: -3.78%,–
CCOC(=O)C1CCCN(C(=O)c2cc(C)oc2C)CC1 (stereo not given),inactive: 16.9%,–
CCNc1nc(NCC)nc(N/N=C/c2ccc(O)c(OC)c2)n1,inactive: 8.29%,–
CCCN=C(C)C1=C(O)c2ccccc2C1=O,inactive: 18.5%,–
Cc1ccc(C(=O)NN(CCC(=O)NC(C)(C)C)C2=NS(=O)(=O)c3ccccc32)cc1,inactive: 23.4%,–
COc1ccccc1-c1nc(C#N)c(N2CCN(Cc3ccccc3)CC2)o1,inactive: 1.61%,–
O=C(N/N=C/c1ccc([N+](=O)[O-])s1)c1ccccc1,inactive: -7.13%,–
CCOc1ccc(OCCOCCOc2ccccc2Cl)cc1,inactive: 24.2%,–
COc1cc(NC(=O)CCn2c(=O)oc3ccccc32)cc(OC)c1OC,inactive: 7.61%,–
O=C(OCn1ncc(Br)c(Br)c1=O)c1ccc(F)cc1,inactive: -91%,–
Cc1noc(C)c1C(=O)NC(C)c1ccc(Cl)cc1Cl (stereo not given),inactive: 11.7%,–
N#Cc1cc(-c2ccccc2)nc(N2CCNCC2)n1,inactive: -2.1%,–
Oc1[nH]c(=S)sc1/C=C1\C(c2ccccc2)=Nc2ccccc21,inactive: -3.23%,–
Cc1nnc(-c2ccc(Oc3ccc(Br)cc3)c([N+](=O)[O-])c2)o1,inactive: 11.2%,–

SMILES,growth rescue (activation),Potency
CC1(C)Cc2ccccc2C(COc2ccccc2)=N1,inactive: 3.27%,–
Cc1ccc(NC(=O)NCc2cccn2C)cc1C,inactive: -6.65%,–
CC1=N/C(=C\c2ccc([N+](=O)[O-])cc2)C(=O)N1c1ccc(F)cc1F,inactive: -13.9%,–
COc1cccc(NC(=O)Cn2c(=O)n(-c3cc(OC)c(OC)c(OC)c3)c(=O)c3ccccc32)c1,inactive: -20.9%,–
O=C(Cc1ccccc1)NNc1c2ccccc2nc2ccccc12,inactive: 4.43%,–
CN(C)C(CNC(=O)c1cccc(C#N)c1)c1ccco1 (stereo not given),inactive: -1.02%,–
CCCS(=O)(=O)c1c(S(=O)(=O)CCC)c2ccc(C(N)=O)cn2c1C(=O)c1ccc(F)cc1,inactive: 2.54%,–
CC1(C)C(=O)Nc2ccccc2N1C(=O)COc1ccccc1C#N,inactive: -2.03%,–
C=CCn1c(C)cc(C(=O)COc2ccc(S(=O)(=O)N3CCCC3)cc2[N+](=O)[O-])c1C,inactive: 5.91%,–
CCN(CC)S(=O)(=O)c1ccc(OC)c(NC(=O)c2ccc(=O)[nH]c2)c1,inactive: -3.98%,–
Cc1nc(C(F)(F)F)ccc1C(=O)N1CCC1(C)C(=O)NS(C)(=O)=O (stereo not given),inactive: 9.13%,–
CSc1ccc(CN2CCC(C(=O)NCc3ccc(C)cc3)CC2)cc1,inactive: -2.87%,–
COc1ccc(NC(=O)c2ccc(NC(=O)CSc3nccc(=O)[nH]3)cc2)cc1,inactive: 2.48%,–
CN(C)c1ccc(P(=O)(OCc2ccccc2)C(O)c2ccc(Br)cc2)cc1 (stereo not given),inactive: 4.85%,–
O=C(Nc1ccc(-n2cnnn2)cc1)C1CCCN1C(=O)NC1CCCCC1 (stereo not given),inactive: 19.7%,–
O=C(NC1CCCC1)C(c1ccccc1F)N(C(=O)c1ccco1)C1CCCC1 (stereo not given),inactive: 10%,–
O=C(NCC1CCCO1)C(=O)N/N=C/c1cc(Cl)ccc1O (stereo not given),inactive: -7.47%,–
CN1CCN(C2=C(NS(=O)(=O)c3cccs3)C(=O)c3ccccc3C2=O)CC1,inactive: -1.04%,–
COCCn1nnnc1C(c1ccccc1)N1CCN(C(=O)c2ccco2)CC1 (stereo not given),inactive: 11%,–
CCCCN(C)CCNC(=O)C1CCN(c2nc3ccc(CC)cc3s2)CC1,inactive: 10.1%,–
N/C(=N\OC(=O)c1cccs1)c1cccc(Br)c1,inactive: -73.1%,–
O=C(CCCOc1ccc(Br)cc1)NCCc1ccc(OC(F)F)cc1,inactive: 18.8%,–
CC1(C(=O)NS(=O)(=O)c2ccc3ccccc3c2)CCN1C(=O)C1(c2ccc(Cl)cc2)CCC1 (stereo not given),inactive: -7.5%,–
Cc1c(-c2cccc(Cl)c2)nc2ccccc2c1C(=O)OCC(=O)N(C)C1CCS(=O)(=O)C1 (stereo not given),inactive: -4.02%,–
CCCCc1nnc(NC(=O)CSc2nc(N)cc(=O)[nH]2)s1,inactive: 4.41%,–
CCN(CCn1cccn1)C(=O)c1cc(COc2c(F)cccc2F)on1,inactive: 11.7%,–
CCN(CC)c1cccc(OCC(=O)N(C)CCC#N)c1,inactive: 18%,–

SMILES,growth rescue (activation),Potency
COc1ccc(OCC(=O)NNC(=S)NC(=O)c2ccc([N+](=O)[O-])cc2)cc1,inactive: -14.9%,–
CCOC(=O)c1c(NC(=O)CN2CCCCC2)sc(CN(C)C)c1-c1ccccc1,inactive: -6.88%,–
Cn1c(=O)cc(NCCc2ccccc2)[nH]c1=O,inactive: 1.75%,–
O=C(C1CCCN(S(=O)(=O)c2cc(Cl)ccc2Cl)C1)N1CCCC1 (stereo not given),–,active: 14.1 µM
O=C(CCc1c[nH]c2ccccc12)NCc1ccncc1,inactive: -0.4%,–
O=C(NCCN1CCN(C(=O)c2cccc([N+](=O)[O-])c2)CC1)C(=O)NCc1ccc(Cl)cc1,inactive: -9.79%,–
COc1ccc(NC(=O)CNC(=O)Cc2ccccc2)cc1OC,inactive: 12.9%,–
CC(=O)Nc1ccc(NC(=O)c2csc([C@H]3C[C@H](O)[C@@H](CO)O3)n2)cc1,inactive: -1.33%,–
C=CC[N+]1(CC(=O)NCc2ccc(NC(C)=O)cc2)CCOCC1,inactive: 0.551%,–
Cc1cc(C)n2nc(C(=O)N/N=C/c3cccc(Cl)c3)nc2n1,inactive: -16.8%,–
CC(=O)Nc1ccc([N+](=O)[O-])c(CS(=O)(=O)c2ccc(C)cc2)c1[N+](=O)[O-],inactive: -12.8%,–
O=C(COC(=O)c1cc(Cl)ccc1[N+](=O)[O-])Nc1cccc2ccccc12,inactive: 6.65%,–
O=C(CCc1nnc(CCCc2ccccc2)o1)NCCCC1CCCC1,inactive: 18.5%,–
Cc1ccc(O)c(C(CC(=O)NC2CCCCC2)c2ccccc2)c1 (stereo not given),inactive: -11.2%,–
CC1(C(=O)O)CCN1C(=O)c1ccccc1F (stereo not given),inactive: 11%,–
Cc1ccc(C(C)C)cc1OCC(=O)NNC(=O)Nc1ccccc1,inactive: 5.26%,–
CC(N)c1csc(Nc2ncccn2)n1 (stereo not given),inactive: 9.59%,–
CCCS(=O)(=O)NC(=O)C1(C)CCCN(C(=O)c2ccccc2OC)C1 (stereo not given),inactive: 8.8%,–
O=C(Cn1ccc2ccccc2c1=O)NCCC(=O)N1CCCCC1,inactive: 6.23%,–
CC(C)[C@H](NC(=O)c1c(F)cccc1F)C(=O)N1CCN(c2ccc(F)cc2)CC1,inactive: -22.1%,–
NS(=O)(=O)c1ccc(NC(=S)Nc2ccc(Br)c(Cl)c2)cc1,inactive: 18%,–
Cc1c(Cl)cccc1NC(=S)NC1CCN(Cc2ccccc2)CC1,inactive: 9.27%,–
CCC(C)c1ccc(OCC(=O)Nc2ccc(CN3CCOCC3)cc2)cc1 (stereo not given),inactive: 2.5%,–
O=S(=O)(Cc1ccccc1)NCC1CCCN(Cc2ccc(F)c(F)c2)C1 (stereo not given),inactive: 5.41%,–
Cc1ccc(C(=O)N/C(=C/c2cccs2)C(=O)NCC2CCCO2)cc1 (stereo not given),inactive: 6.65%,–
Cc1cc(/C=C(\C#N)C(=O)O)c(C)n1CC1CCCO1 (stereo not given),inactive: 1.91%,–
CCn1cc(CN2CCN(Cc3ccc(OC)c(C)c3C)C(CCO)C2)c(C)n1 (stereo not given),inactive: -10.1%,–

SMILES,growth rescue (activation),Potency
O=C(CCc1ccccc1)Nc1ccc(S(=O)(=O)N2CCOCC2)cc1,inactive: 27.4%,–
Cc1ccc(C)c(NC(=S)N(Cc2ccc(Cl)cc2)Cc2ccc(C(=O)O)cc2)c1,inactive: -9.23%,–
COc1ccc(NS(=O)(=O)c2ccc3nc(COc4ccc5ccccc5c4)[nH]c3c2)cc1,inactive: 1.26%,–
O=C(CSc1nnc(-c2n[nH]c3ccccc23)n1-c1ccccc1)Nc1ccccc1Cl,inactive: 5.56%,–
Cc1c2cnn(CC(=O)Nc3c(F)c(F)cc(F)c3F)c(=O)c2c(C)n1Cc1ccccc1F,inactive: 12.2%,–
Cn1nnnc1SCC(=O)Nc1cc(C(F)(F)F)ccc1N1CCOCC1,inactive: 12.7%,–
O=C(c1ccc(COc2ccccc2Cl)o1)N1CCN(Cc2ccc3c(c2)OCO3)CC1,inactive: -2.42%,–
CCOc1cc(NS(=O)(=O)c2ccc(NC(C)=O)cc2)c(OCC)cc1NC(=O)c1cccs1,inactive: 15.9%,–
O=C(CSCCO)Nc1cccc([N+](=O)[O-])c1,inactive: -2.59%,–
Cc1nnc(NC(=O)C2CCN(C(=O)c3ccco3)CC2)s1,inactive: -3.16%,–
O=C(O)c1cccc(S(=O)(=O)N(Cc2ccccc2)c2cccc(C(F)(F)F)c2)c1,inactive: -16.8%,–
O=C(CC1SC(=NCC2CCCO2)NC1=O)Nc1cccc2ccccc12 (stereo not given),inactive: -3.92%,–
Cc1cccn2c(=O)c3cc(C(=O)N4CCN(C(=O)c5ccco5)CC4)n(C)c3nc12,inactive: 19.4%,–
Cc1cccn2c(=O)c(/C=C(\C#N)C(N)=O)c(N3CCN(Cc4ccc5c(c4)OCO5)CC3)nc12,inactive: -23.8%,–
C=CCOc1ccc(C=Nc2ccc(C)c(Cl)c2)c(O)c1,inactive: 0.811%,–
CC1(C)CC(=O)C(C=NCCN2CCN(CC(=O)Nc3ccc(Cl)cc3)CC2)=C(O)C1,inactive: 5.71%,–
CCCCNC(=S)N1CCN(CC)CC1,inactive: 2.35%,–
COc1ccc(C)cc1NC(=O)C(Sc1nnc(Nc2cc(C)ccc2OC)s1)c1ccccc1 (stereo not given),inactive: 31.8%,–
COC(=O)[C@H](C)NC(=O)c1cc2c(cn1)[nH]c1ccccc12,inactive: -22.4%,–
Cc1noc(C)c1C(=O)N1CCC1(C)C(=O)NS(=O)(=O)c1ccc(Cl)cc1 (stereo not given),inactive: -8.92%,–
O=C(Nc1ccc(N2CCN(C(=O)c3cccs3)CC2)cc1)c1cccc(F)c1,inactive: -0.0565%,–
c1cc(-c2ccc(N3CCOCC3)cc2)n2ccnc2c1,inactive: -10.7%,–
Cc1cc(F)ccc1Nc1nc2ccccc2n2nnnc12,inactive: 10.8%,–
CC(=O)N1CCN(c2ccc(NS(=O)(=O)c3ccc(C)cc3)cc2)CC1,inactive: 18.8%,–
